{
  "source": "PubChem BioAssay AID488895",
  "about": "(Broad Institute, 2010)",
  "note": "Among all 340,000 compounds or so, about 120 (0.035%) were called active. The inconclusive results got no clear call from the source; some entries with a clear call stand among them for comparison.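 Rule for the calls: active = mean replicate inhibition at least 50% and at least half of replicates individually reaching 50%; inconclusive = only one of the two criteria met; inactive = neither criterion met.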",
  "data": [
    {"assay": "E. coli Tat export inhibitors, primary screen, MC4100, TorA-mCherry reporter, fluorescence, single point (AID 488895);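 note: exported cargo escapes ClpAP degradation while cytoplasmic cargo is degraded and loses fluorescence; 0% = median of neutral control wells and 100% = median of NaSCN control wells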", "settings": "at 10 µM, active compounds read high", "values": [
      {"smiles": "COc1ccccc1N=Nc1ccc(O)c2ncccc12", "inhibition": "inactive: -9.53%"},
      {"smiles": "CCCCCCSc1nnc2[nH]c(=O)cc(N)n12", "inhibition": "inactive: 6.21%"},
      {"smiles": "O=Cc1c(-c2ccc(F)cc2)nc2ccccn12", "inhibition": "inactive: 0.895%"},
      {"smiles": "O=P(COCCOCP(=O)(c1ccccc1)c1ccccc1)(c1ccccc1)c1ccccc1", "inhibition": "inconclusive: 31.6%"},
      {"smiles": "CCn1cc(C(=O)O)c(=O)c2cc(F)c(N3CCNCC3)cc21", "inhibition": "active: 94.1%"},
      {"smiles": "CC(C)N1CCC(N2CCN(C3CCCCC3)CC2CCO)CC1", "note": "(stereo not given)", "inhibition": "inconclusive: 35.2%"},
      {"smiles": "CC(C)C(c1nnnn1C1CCCC1)N1CCC(C(N)=O)CC1", "note": "(stereo not given)", "inhibition": "inconclusive: 26.5%"},
      {"smiles": "NC(=O)c1cc2ccc(O)cc2oc1=Nc1ccccc1", "inhibition": "inconclusive: 34.1%"},
      {"smiles": "COc1cccc(C(=O)N(CN2CCCC2=O)c2cccc(Cl)c2)c1OC", "inhibition": "inconclusive: 23.9%"},
      {"smiles": "CN(CC(=O)NCCN1CCOCC1)S(=O)(=O)c1ccc(Cl)cc1", "inhibition": "inconclusive: 29.4%"},
      {"smiles": "C/C(CC(=O)Nc1cc(Cl)ccc1Cl)=N\\NC(=O)c1ccco1", "inhibition": "inactive: 4.02%"},
      {"smiles": "COc1ccc(Cn2nnnc2C(c2cc3ccc(OC)cc3[nH]c2=O)N2CCC(C)CC2)cc1", "note": "(stereo not given)", "inhibition": "inconclusive: 24.9%"},
      {"smiles": "O[C@@H](c1cc(C(F)(F)F)nc2c(C(F)(F)F)cccc12)[C@H]1CCCCN1", "inhibition": "inconclusive: 33.4%"},
      {"smiles": "Nc1nc(=S)c2[nH]c(=S)[nH]c2[nH]1", "inhibition": "inactive: 7.12%"},
      {"smiles": "COc1cccc(NC(=O)CN2C(=O)NC(C)(c3ccc(C)cc3)C2=O)c1", "note": "(stereo not given)", "inhibition": "inactive: 2.81%"},
      {"smiles": "Nc1cccc([N+](=O)[O-])c1", "inhibition": "inactive: -8.62%"},
      {"smiles": "O=C(CNC(=O)c1ccccc1)N/N=C/c1ccc([N+](=O)[O-])o1", "inhibition": "inactive: -0.02%"},
      {"smiles": "CC(=O)N1CCSc2ccc(S(=O)(=O)N3CCC(C)CC3)cc21", "inhibition": "inactive: 2.03%"},
      {"smiles": "COc1ccc(CN=C2Nc3ccccc3CS2)cc1", "inhibition": "inactive: -13%"},
      {"smiles": "COc1ccc(N=C(NN)c2ccc3ccccc3n2)cc1", "inhibition": "inconclusive: 28.7%"},
      {"smiles": "CN(C)c1ccc(C(=O)C(O)c2ccc(C(C)(C)C)cc2)cc1", "note": "(stereo not given)", "inhibition": "inconclusive: 35.1%"},
      {"smiles": "CCCNc1nc2c(c(=O)[nH]c(=O)n2C)n1CCCc1ccccc1", "inhibition": "inconclusive: 31.9%"},
      {"smiles": "Cc1ccnc(NC(=O)c2ccc([N+](=O)[O-])s2)c1", "inhibition": "inactive: -7.56%"},
      {"smiles": "O=C(O)c1ccc(N/N=C/c2ccc(-c3cccc(Cl)c3)o2)cc1", "inhibition": "inactive: 2.99%"},
      {"smiles": "O=C1C=C(O)c2c(O)cc(O)c(O)c2C1=O", "inhibition": "inactive: 22.4%"},
      {"smiles": "Cc1ccc(C(=O)N/N=C/c2ccc(-c3ccccc3[N+](=O)[O-])o2)cn1", "inhibition": "inactive: -3.52%"},
      {"smiles": "CCOc1ccc(NC(=O)c2ccc(NC(=O)c3cn4c5c(c(N6CCN(C)CC6)c(F)cc5c3=O)OCC4C)cc2)cc1", "note": "(stereo not given)", "inhibition": "active: 87.9%"},
      {"smiles": "Cc1nn(Cc2ccccc2Cl)c(C)c1NC(=O)c1ccn(C)n1", "inhibition": "inconclusive: 28.8%"},
      {"smiles": "Cc1nn(C(C)C(=O)NC2C(=O)N3C(C(=O)O)=C(CSc4nnnn4C)CSC23)cc1Cl", "note": "(stereo not given)", "inhibition": "inactive: -16.3%"},
      {"smiles": "CC(=O)NS(=O)(=O)c1ccc(NC(=O)c2cc(-c3cccs3)nc3ccccc23)cc1", "inhibition": "inconclusive: 25.7%"},
      {"smiles": "CN(C)/C=C/C(=O)/C=C/c1cn(-c2ncc(C(F)(F)F)cc2Cl)c2ccccc12", "inhibition": "inactive: -17.5%"},
      {"smiles": "O=C(Nc1ccc(N2CCOCC2)cc1)c1ccc([N+](=O)[O-])o1", "inhibition": "inactive: -2.8%"},
      {"smiles": "Cc1cccc(NC(=S)NC(C)CCc2ccccc2)c1", "note": "(stereo not given)", "inhibition": "inconclusive: 32.5%"},
      {"smiles": "O=C(O)c1cnc(-c2ccccc2)nc1Sc1cccc(Cl)c1", "inhibition": "inactive: 13.4%"},
      {"smiles": "O=C(CN(Cc1ccco1)C(=O)c1ccccc1F)Nc1ccccc1C(F)(F)F", "inhibition": "inconclusive: 34.1%"},
      {"smiles": "C=CCn1c(SCC(N)=O)nnc1-c1cccc(Br)c1", "inhibition": "inconclusive: 24.9%"},
      {"smiles": "CC(C)(C)NC(=O)NC(=O)CSc1ccc(S(=O)(=O)N2CCOCC2)cn1", "inhibition": "inconclusive: 27.5%"},
      {"smiles": "COc1ccc(CCNC(=O)CC(NC(=O)c2ccccc2Cl)c2ccccc2)cc1", "note": "(stereo not given)", "inhibition": "inactive: -0.404%"},
      {"smiles": "O=C(CCCc1nc2ccccc2s1)NC1CCOC1=O", "note": "(stereo not given)", "inhibition": "inconclusive: 25.2%"},
      {"smiles": "Nn1c(-c2ccc(F)cc2)nc2ccccc2c1=O", "inhibition": "inactive: -4.8%"},
      {"smiles": "O=C(NCc1cccnc1)c1ccc(-c2cccc(Cl)c2Cl)o1", "inhibition": "inactive: -6.2%"},
      {"smiles": "O=C(NCc1ccccc1)c1ccc(Br)o1", "inhibition": "inconclusive: 27.8%"},
      {"smiles": "N#C/C(=C\\c1cn[nH]c1-c1ccc(Cl)cc1)C(=O)NCc1ccccc1", "inhibition": "inconclusive: 38.9%"},
      {"smiles": "CC1(C)CC(=O)C=C(NCCN2CCN(C(=O)Nc3ccccc3)CC2)C1", "inhibition": "active: 52.3%"},
      {"smiles": "O=C(CCl)N1c2ccccc2SCC1c1ccccc1", "note": "(stereo not given)", "inhibition": "inactive: 5.91%"},
      {"smiles": "CC(C)C(C(=O)NC1CCCC1)N(CC1CCCO1)C(=O)CNS(=O)(=O)c1ccccc1", "note": "(stereo not given)", "inhibition": "inconclusive: 31.2%"},
      {"smiles": "COc1ccc(CN(C(=O)/C=C/c2ccccc2Cl)C2CCS(=O)(=O)C2)cc1", "note": "(stereo not given)", "inhibition": "inconclusive: 31.3%"},
      {"smiles": "Cc1cc(C)cc(-n2c(C)cc(/C=C3\\C(=N)N4N=C(CC(C)C)SC4=NC3=O)c2C)c1", "inhibition": "inconclusive: 30.6%"},
      {"smiles": "CCSC(=O)NC12CC3CC(CC(C3)C1)C2", "inhibition": "inconclusive: 32%"},
      {"smiles": "CCOC(=O)c1cc(C)sc1NC(=O)C(c1ccccc1)c1ccccc1", "inhibition": "inconclusive: 31.4%"},
      {"smiles": "O=[N+]([O-])/C(C(Cl)=C(Cl)Cl)=C(/Sc1ccccc1)N1CCCCC1", "inhibition": "inconclusive: 23.4%"},
      {"smiles": "CCN(CC)CC(=O)Nc1ccc(C)cc1C(=O)c1ccccc1", "inhibition": "inconclusive: 23.9%"},
      {"smiles": "CCn1ccnc1CN(C)C(=O)c1cc(COc2ccc(Cl)cc2OC)on1", "inhibition": "inconclusive: 22.6%"},
      {"smiles": "O=C(Nc1ccncc1)c1ccc(Cl)c(Cl)c1", "inhibition": "inconclusive: 31.4%"},
      {"smiles": "Cc1nc(N)nc(Cl)c1Cc1ccc(Cl)cc1", "inhibition": "inconclusive: 32.1%"},
      {"smiles": "Nc1nnc(-c2ccc(F)cc2)s1", "inhibition": "inconclusive: 37.1%"},
      {"smiles": "C[C@H]1c2cccc(O)c2C(O)=C2C(=O)[C@]3(O)C(O)=C(C(N)=O)C(=O)[C@@H](N(C)C)[C@@H]3[C@@H](O)[C@@H]21", "inhibition": "active: 147%"},
      {"smiles": "CCc1c(O)cc2n(c1=O)-c1ccccc1C2(C)C", "inhibition": "inactive: -2.57%"},
      {"smiles": "COc1ccc(CCNC(=O)CN2CCOc3ccccc32)cc1OC", "inhibition": "inconclusive: 41.2%"},
      {"smiles": "COC(=O)CN1C(=O)C(O)=C(C(C)=O)C1c1ccc([N+](=O)[O-])cc1", "note": "(stereo not given)", "inhibition": "inconclusive: 33.8%"},
      {"smiles": "COc1ccc(Nc2nc3ccccc3nc2-n2nc(C)cc2C)cc1", "inhibition": "inconclusive: 29.5%"},
      {"smiles": "CC(C)(C)OC(=O)NCCCCCNC(=O)c1[nH]cnc1C(=O)NC1CCN(C(=O)OC(C)(C)C)CC1", "inhibition": "inconclusive: 36%"},
      {"smiles": "COc1ccc(/C=C(/NC(=O)c2cccc([N+](=O)[O-])c2)C(=O)O)cc1OC", "inhibition": "inconclusive: 26.5%"},
      {"smiles": "O=C(O)CCCc1nc(-c2ccc(Cl)cc2)no1", "inhibition": "inconclusive: 30.2%"},
      {"smiles": "Cc1nc2ccc(N)cc2c(=O)n1Cc1ccc(Cl)cc1", "inhibition": "inactive: 14.8%"},
      {"smiles": "Nc1ncncc1-c1ccc([N+](=O)[O-])cc1", "inhibition": "inactive: 21.6%"},
      {"smiles": "COC(=O)Nc1ccc2c(c1)N(C(=O)CCN1CCOCC1)c1ccccc1S2", "inhibition": "inconclusive: 23.4%"},
      {"smiles": "CCc1ccc(C(C(=O)NC2CCCC2)N(CCOC)C(=O)CCC(=O)Nc2cc(C)on2)cc1", "note": "(stereo not given)", "inhibition": "inconclusive: 36.8%"},
      {"smiles": "CN1CCN(c2ccc(S(=O)(=O)N3CCCCC3)cc2NC(=O)c2cccc([N+](=O)[O-])c2)CC1", "inhibition": "inconclusive: 40.2%"},
      {"smiles": "O=C(CNS(=O)(=O)c1ccc(Br)s1)NCc1ccc(F)cc1", "inhibition": "inactive: -1.06%"},
      {"smiles": "Cc1ccnc(NS(=O)(=O)c2ccc(NS(=O)(=O)c3ccccc3)cc2)n1", "inhibition": "inconclusive: 26.1%"},
      {"smiles": "Cc1nn(C)cc1S(=O)(=O)Nc1ccccc1Br", "inhibition": "inconclusive: 36.2%"},
      {"smiles": "Cc1cc(-c2[nH]nc3c2C(c2ccc(Cl)cc2)C(C#N)=C(N)O3)c(C)s1", "note": "(stereo not given)", "inhibition": "inactive: -4.41%"},
      {"smiles": "Cc1ccc(C(=O)CN2/C(=C(\\O)c3ccccc3)C(=O)c3ccccc3S2(=O)=O)c(C)c1", "inhibition": "inconclusive: 27%"},
      {"smiles": "O=C(CCNC(=O)C1CCN(S(=O)(=O)c2ccc(F)cc2)CC1)Nc1nccs1", "inhibition": "inconclusive: 33.9%"},
      {"smiles": "O=C(NNc1ccc(Cl)cc1)C1CCC1", "inhibition": "inactive: -6.38%"},
      {"smiles": "CN(Cc1ccccc1)C(=O)N1CCOCC1", "inhibition": "inconclusive: 33.8%"},
      {"smiles": "CCS(=O)(=O)c1ccc(NC(=O)c2ccccc2Cl)c(O)c1", "inhibition": "inconclusive: 30.4%"},
      {"smiles": "O=C(CS(=O)(=O)c1ccc(Cl)c(Cl)c1)Nc1ccccc1Cl", "inhibition": "inconclusive: 36.5%"},
      {"smiles": "COc1ccc(-c2nc3ccccc3o2)cc1NC(=O)c1ccc(Br)o1", "inhibition": "inconclusive: 30.1%"},
      {"smiles": "CCN1CCCC1CNCc1cccc(OC)c1OCc1ccc(F)cc1", "note": "(stereo not given)", "inhibition": "inconclusive: 21.8%"},
      {"smiles": "Cc1nn(Cc2ccccc2)c(C)c1NC(=O)c1noc2c1CCc1ccccc1-2", "inhibition": "inconclusive: 38.7%"},
      {"smiles": "O=C(C1CC(=O)N(C2CCCC2)C1)N1CCN(c2ccc(F)cc2)CC1", "note": "(stereo not given)", "inhibition": "inconclusive: 35.7%"},
      {"smiles": "CCc1ccc(C(=O)Nc2ccc(S(=O)(=O)Nc3nc(C)cc(C)n3)cc2)o1", "inhibition": "inconclusive: 28.9%"},
      {"smiles": "CCCCCn1c(CNC(=O)c2cccs2)nc2ccccc21", "inhibition": "inconclusive: 27.7%"},
      {"smiles": "COc1cc(S(=O)(=O)Nc2cc(C)cc(C)c2)ccc1F", "inhibition": "inconclusive: 32%"},
      {"smiles": "Cc1ccc(NC(=O)/C(=C/c2cccc([N+](=O)[O-])c2)NC(=O)C2CCCCC2)c(C)c1", "inhibition": "inconclusive: 46.1%"},
      {"smiles": "OCc1ccc(O)c2ncccc12", "inhibition": "inactive: -5.62%"},
      {"smiles": "CC(C)CN(C(=O)COC(=O)c1ccccc1NCc1ccco1)c1c(N)n(Cc2ccccc2)c(=O)[nH]c1=O", "inhibition": "inconclusive: 22%"},
      {"smiles": "Nc1ccccc1C(=O)N1O[C@@H]2C=C[C@H]1C2", "inhibition": "inactive: 8.45%"}
    ]}
  ]
}
